From PubChem BioAssay AID1963576 (National Center for Advancing Translational Sciences (NCATS), 2024)
Screen size: about 46,000 compounds; about 60 (0.1%) were called active. About 3% were inconclusive and are not listed. Calls come from the whole dose curve; as a rule, active = well fitted inhibition curve with a large enough effect; inconclusive = small, poorly fitted or top-dose-only effect; inactive = no such curve, though single readings can be large or run the other way. This is one part of the list.

Assay: Primary qHTS assay for Inhibitors of ovarian cancer metastasis using an organotypic tumor microenvironment (TME) model.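 For activity change, negative = inhibition: plate controls were DMSO wells for no effect and tomatine positive control wells for full effect.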 Note: nearly all actives have a fitted effect of over 65% in size.
Settings: SKOV3ip1-GFP adhesion/invasion on 3D omental model, fluorescence; series mostly up to 45.8 µM; activity change, negative = inhibition: at the top concentration
Summary of the method: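 A 3D layer of primary human omental fibroblasts, mesothelial cells, fibronectin and collagen I, grown 48 hr, received SKOV3ip1-GFP cells in serum-free medium plus compounds at 0.36-46 umol/L. After 2 hr RT and 16 hr 37 C, fixed adherent GFP cells were counted; normalized to DMSO and tomatine.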

Activity change, negative = inhibition, inactive:
O=C1CS(=O)(=O)C2(C(=O)N(Cc3cccc(F)c3)c3ccccc32)N1c1ccccc1 (stereo unspecified) -2.63%
COc1ccc(/C=C(\C#N)c2nc(-c3cc(Cl)ccc3OC)cs2)cc1 -3.36%
Cc1cccc(OCCCC(=O)Nc2sc3c(c2C(N)=O)CCC(C)C3)c1 (stereo unspecified) 0.314%
CCN(CC)c1nc(-c2ccc(C(C)(C)C)cc2)nc2ccccc12 -3.47%
Oc1ccccc1Nc1nc(-c2ccccc2)c2cc(Cl)ccc2n1 -10.9%
O=C(CSc1nc2nccnc2c(=O)n1CCc1c[nH]c2ccccc12)Nc1ccccc1F -3.48%
CCOc1ccc(NC(=O)c2ccc(NC(=O)CCS(=O)(=O)c3cccs3)cc2)cc1 -8.27%
COc1cc(OC)c(NC(=O)c2c(C)oc3ncn(C)c(=O)c23)cc1Cl 7.77%
Cc1ccc(Cc2nc3ccccc3nc2SCC(=O)N2CCc3ccccc32)cc1 3.06%
CCn1cc(C(=O)N2CCN(c3cccc(Cl)c3)CC2)c(=O)c2cc(S(=O)(=O)N3CCOCC3)ccc21 -8.04%
Cc1ccc(C2CC(=O)N(Cc3ccccc3F)c3c2c(C)nn3-c2nc(C)cc(C)n2)cc1 (stereo unspecified) 1.6%
Cc1ccc(NC(=O)c2nc(S(C)(=O)=O)ncc2N(Cc2ccccc2)Cc2ccco2)c(C)c1 0.184%
COc1ccc(NC(=O)Nc2nnc(N3CCCCCC3)s2)cc1 0.123%
CN(C)CCNC(=O)C1CCN(c2nc3ccccc3[nH]2)CC1 16.1%
Cc1ccc(CNC(=O)Cn2c3ncccc3c(=O)n2-c2ccccc2)cc1 62.3%
Cc1ccc(C(=O)Nc2c(-c3ccccc3)nc3ccccn23)cc1C -18.8%
CNC[C@H](O)c1cccc(O)c1 0.338%
COc1ccc(NC(=O)c2nnn(Cc3ccccc3C)c2N)c(OC)c1 6.51%
O=C(O)[C@H]1O[C@H](Oc2cc3oc(-c4ccccc4)cc(=O)c3c(O)c2O)[C@H](O)[C@@H](O)[C@H]1O 3.39%
CCCC(=O)NC1CC(=O)N(c2ccc3c(c2)OCCO3)C1 (stereo unspecified) 10.2%
COc1ccc(S(=O)(=O)Nc2ccc(O)c(Sc3nc4ccccc4s3)c2)cc1 -2.91%
O=C(Nc1cccc(Cl)c1)N1Cc2ccccc2Oc2ncccc21 -4.01%
CCc1ccc(NC(=O)CN2C(=O)C(=O)c3ccccc32)cc1 8.12%
O=C(Nc1cccc(C(=O)OCc2cc(=O)n3nc(C4CC4)sc3n2)c1)c1ccc(F)cc1 -3.09%
Cc1c(C(=O)N(C)C)sc2c1c(=O)n(-c1ccc(Cl)c(Cl)c1)c(=O)n2Cc1ccc(F)cc1 -28.1%
COc1ccccc1C1C(C(N)=O)=C(C)Nc2nc(SCc3ccccc3F)nn21 (stereo unspecified) 21.9%
Cc1ccccc1CCNC(=O)c1cc2ccccn2n1 4.92%
COc1ccc(NC(=O)CCS(=O)(=O)c2cc(Br)cc3c2N(C(C)=O)CC3)c(OC)c1 -8.48%
O=c1c(-c2ccc(O)cc2)coc2cc(O)cc(O)c12 18.7%
CN(C(=O)CSc1nc2ccc(NC(=O)c3ccc(F)cc3)cc2s1)c1ccccc1 -21.3%
COc1ccc(-c2onc(C)c2C)cc1S(=O)(=O)NC1CCCCC1 2.6%
CCn1cc(C(=O)N(C)Cc2ccccc2)c(=O)c2cc(S(=O)(=O)N3CCCCC3)ccc21 5.03%
Cc1cccc(N2CCN(C(=O)Cn3nc(C)c4sc5ccccc5c4c3=O)CC2C)c1 (stereo unspecified) 3.84%
Cn1c(=O)n(C)c2cc(CNCc3ccc(C(=O)O)cc3)ccc21 3.65%
Cc1c(C(=O)N2CCOCC2)oc2c1-c1nn(CC(=O)NCc3ccccc3)cc1CC2 7.86%
CSc1ccc(Nc2nn(-c3ccc(OC(F)(F)F)cc3)nc2C(C)=O)cc1 2.09%
Cc1cccc(N2CCN(c3c(CN4CCCC4)c(=O)oc4ccccc34)CC2)c1C 5.92%
Cc1ccc(CN2C(=O)C3(SCC(=O)N3c3ccc(C)c(C)c3)c3ccccc32)cc1 (stereo unspecified) 3.35%
CCOC(=O)Cn1nc(N2CCN(c3ccc(F)cc3)CC2)ccc1=O 9.23%
CCOC(=O)c1cccc(NC(=O)CCc2c(C)nc3c4cccnc4nn3c2C)c1 17.5%
COc1ccccc1Cn1c(CNS(=O)(=O)c2c(C)cc(C)cc2C)nc2cccnc21 -18.3%
C[C@H](NC(=O)Cc1cc(F)cc(F)c1)C(=O)N[C@@H]1C(=O)N(C)c2ccccc2-c2ccccc21 37.9%
CCOCCn1ccc2c(OCC(=O)Nc3cc(C(F)(F)F)ccc3Cl)cccc2c1=O 1.68%
Cc1cccc(C(=O)Nc2cc3c(cc2N2CCCCC2)n(C)c(=O)n3C)c1 -7.62%
CCn1cc(S(=O)(=O)c2ccccc2)c(=O)c2cc(F)c(N3CCCCCC3)cc21 0.0686%
CC(=O)c1cccc(NC(=O)c2ccc3c(c2)CCN3S(=O)(=O)c2ccccc2)c1 6.47%
COc1ccc(C2NC(=O)N(C)C3=C2C(=O)N(c2ccccc2)C3)cc1 (stereo unspecified) -8.6%
O=C(O)c1ccc(Nc2ncc3c(n2)-c2ccc(Cl)cc2C(c2c(F)cccc2F)=NC3)cc1 10.5%
COc1ccc(-c2nc3c(C#N)c[nH]n3c2NC2CCCCC2)cc1 -12.5%
CCC12CN3CC(C)(CN(C1)C3c1c(C)[nH]c3ccccc13)C2=O (stereo unspecified) 5.49%
COc1ccc(CCNC(=O)C(C)n2nc(C)c3sc4ccccc4c3c2=O)cc1OC (stereo unspecified) 0.725%
COc1ccc(-c2nc(C)c(CCNC(=O)c3cccc(C)c3)s2)cc1OC -1.46%
COCCNC(=O)C(=O)Nc1ccc2nc3n(c(=O)c2c1)CCCCC3 2.72%
Cc1ccc(C)c(N2CCN(C(=O)CN3C(=O)COc4ccc(S(=O)(=O)N5CCOCC5)cc43)CC2)c1 6.84%
Cc1ccc(C)c(CNC(=O)C2CCCCN2S(=O)(=O)c2ccc(F)cc2)c1 (stereo unspecified) 3.58%
CCCCC(=O)Nc1nnc(S(=O)(=O)N2CCCCCC2)s1 4.63%
O=C(Nc1ccc(F)c(Cl)c1)C1CCCN(c2ncnc3onc(-c4ccc(F)cc4)c23)C1 (stereo unspecified) -3.98%
CCC(=O)N1c2ccccc2CC1C(=O)NCCCN1CCN(c2ccccc2)CC1 (stereo unspecified) -8.61%
COc1ccc(C2C=C(c3ccc(C)cc3)Nc3c(C(=O)Nc4ccccc4)cnn32)cc1 (stereo unspecified) -12%
CCCS(=O)(=O)c1c(S(=O)(=O)CCC)c2cc(C(C)(C)C)ccn2c1C(=O)c1ccc(OC)c(OC)c1 -8.68%
COc1ccccc1CNC(=O)c1cc2sccc2n1Cc1ccc(F)cc1 -21.2%
Cc1ccc(C)c(NC(=O)c2cc(S(=O)(=O)N3CCc4ccccc4C3)ccc2F)c1 7.72%
COc1ccccc1NC(=O)Cn1c(=O)n(-c2ccccc2Cl)c(=O)c2sc3ccccc3c21 4.62%
COCCCn1c(SCc2ccccc2F)nc2c(sc3ccccc32)c1=O -8.83%
CCc1cccc(NC(=O)Cn2c(C(=O)OC)cc3occc32)c1 9.09%
O=C(Cn1ncc2c3ccccc3n(Cc3ccccc3)c2c1=O)N1CCCCCC1 -2.97%
COc1ccc(-c2noc(-c3ccccc3OCC(=O)Nc3ccc(C(C)=O)cc3)n2)cc1 -3.18%
CCN(CC)S(=O)(=O)c1ccc2c(c1)N(CC(=O)Nc1ccc(F)cc1F)C(=O)C1CCCN21 (stereo unspecified) -12.5%
CSc1cccc(Nc2ncc3cc(-c4c(Cl)cccc4Cl)c(=O)n(C)c3n2)c1 -5.82%
Oc1cccc(-c2nc3ncccn3c2Nc2cccc(C(F)(F)F)c2)c1 5.23%
CCn1cc(C(=O)NCCc2ccc(Cl)cc2)c(=O)c2cc(S(=O)(=O)N3CCOCC3)ccc21 -1.45%
CCOC(=O)c1[nH]c2ccccc2c1NC(=O)c1ccc(OC)c(OC)c1 0.872%
COc1cc(NC(=O)Cn2c(C)cc(C)c(C#N)c2=O)cc(OC)c1 -2.05%

outcome, inactive:
COc1ccc2c(CNCC(C)c3ccccc3)c(C(=O)O)n(Cc3ccc(F)cc3Cl)c2c1 (stereo unspecified)
CCOc1ccc(CCNC(=O)CCc2c(C)nc3c(c(C)nn3-c3ccccc3)c2C)cc1OCC
Cc1c(NC(=O)c2cc([N+](=O)[O-])ccc2N2CCOCC2)cccc1-c1nc2ccccc2o1
O=C(CSc1ccc(-c2ccccn2)nn1)Nc1ccc(F)c(F)c1
Cc1nn(-c2ccc(F)cc2)c(-n2cccc2)c1C(=O)N1CCN(c2ccc(F)cc2)CC1
CC(=O)c1ccc(S(=O)(=O)N2CCC(Oc3ccc(-n4cnnn4)cc3)CC2)cc1
OCc1ccc(-c2ccc(-c3ccc(CO)s3)o2)s1
CCOc1ccccc1NC(=O)c1ccc2oc(=O)c(S(=O)(=O)c3ccc(F)cc3)cc2c1
COC(=O)C1=C(c2ccccc2)c2ccccc2S(=O)(=O)N1CC(=O)Nc1cc(C)ccc1C
Cc1ccc2c(c1)N(CC(=O)NCc1cccc(Cl)c1)C(=O)c1cccnc1O2
Cc1ccccc1OCC(=O)Nc1ccc(S(=O)(=O)Nc2ncccn2)cc1
CCOc1ccc(CCNC(=O)c2cc3cc4ccc(OC)cc4nc3s2)cc1OCC
CCOCCCn1c(=N)c(S(=O)(=O)c2ccccc2)cc2c(=O)n3cc(C)ccc3nc21
Cc1ccc(-n2nc(C)c3c(C)c(CCC(=O)NCc4cccc(Cl)c4)c(C)nc32)cc1C
CCOc1ccc(C2C(C(=O)Nc3ccc(C)cc3C)=C(C)Nc3c(C(=O)Nc4ccc(C)cc4)cnn32)cc1OC (stereo unspecified)
COc1ccc(C(=O)Oc2c(Sc3ccc(C)cc3)c(C)nn2C(C)(C)C)c(OC)c1
Cc1cccc(-c2cc(NC(=O)c3ccccc3C)n(-c3ccccc3)n2)c1
CCOc1ccc(NC(=O)c2cccc(N3CCCS3(=O)=O)c2)cc1
COC(=O)c1cc2sccc2n1Cc1ccc(F)cc1
COc1ccc(Br)cc1CNC(=O)CCCn1c(=O)c2cccn2c2cccnc21
COc1ccc(CNC(=O)CCCCCn2c(=O)[nH]c3ccccc3c2=O)cc1
Cc1ccc(CNc2ccc(-c3nc(-c4cccnc4)no3)cc2[N+](=O)[O-])cc1
CCOC(=O)c1[nH]c2ccccc2c1NC(=O)c1cc(Cl)ccc1Cl
